This note sets out measurements from PubChem BioAssay AID485344 (National Center for Advancing Translational Sciences (NCATS), 2010).

The structures appear in SMILES notation. Screen size: about 340,000 compounds; about 6,900 (2%) were called active. No stated cut-off is given here; in the data, active means inhibition above about 30%; inactive means below that, where a call was filed. The list shows a part of the results, in another mix than the full data. Where no call is shown, the source filed none.

UniProt P14416, sequence (P14416 whole entry, looked up): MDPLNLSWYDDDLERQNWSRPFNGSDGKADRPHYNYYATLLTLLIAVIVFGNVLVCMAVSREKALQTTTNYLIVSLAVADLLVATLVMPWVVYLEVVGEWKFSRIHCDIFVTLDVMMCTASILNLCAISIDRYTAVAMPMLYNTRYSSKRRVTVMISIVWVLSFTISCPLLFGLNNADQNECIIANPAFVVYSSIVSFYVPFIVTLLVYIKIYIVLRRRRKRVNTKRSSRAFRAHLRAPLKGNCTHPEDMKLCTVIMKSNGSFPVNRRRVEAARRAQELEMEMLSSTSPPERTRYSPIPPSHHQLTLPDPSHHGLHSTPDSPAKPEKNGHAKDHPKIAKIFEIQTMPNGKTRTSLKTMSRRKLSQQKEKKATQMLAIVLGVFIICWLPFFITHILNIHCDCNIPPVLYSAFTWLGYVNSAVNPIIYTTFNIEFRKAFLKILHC

This assay deals with D(2) dopamine receptor (Homo sapiens) (UniProt P14416). In words: HTS Assay for Allosteric Antagonists of the Human D2 Dopamine Receptor: Primary Screen for Antagonists. Further: 0% is about no effect. The conditions noted are these: HEK293 TREx D2 cells, calcium flux, dopamine EC80; at 10 µM; stronger effect = higher value. Summed up:
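Cells plated overnight at 30 C with tetracycline; no-wash calcium dye, 30–90 min RT; 10 s baseline; compound pinned; 180 s read; EC80 dopamine added; another 180 s read.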
On the technique in general: Calcium assays in cells follow changes in intracellular calcium, usually with a dye or a luminescent sensor.
The inhibition is the change of the read-out against control, counted positive when it falls. Consider `CCc1cccc(OCC(=O)Nc2ccc(C)c(S(=O)(=O)N3CCCCCC3)c2)c1`, for which the inhibition is active: 31.4%.

Take `COc1ccc(CNC(=O)c2nc(Cn3nc(C)c(Br)c3C)no2)cc1OC`: the inhibition is 5.61%.

Turning to `Cc1noc(C)c1S(=O)(=O)N1CCC(C(=O)Nc2ccc(Br)cc2)CC1`, the inhibition is -9.26%.

`COc1ccc(Cc2nc3ccc(C(=O)NCc4ccc(OC)cc4OC)cc3o2)cc1`: the inhibition came to 25.8%.

With `COc1cc(NC(=O)c2sc3nc4n(c(=O)c3c2C)CCCCC4)cc(OC)c1OC`, the inhibition was -9.65%.

Take `CC(C)c1ccc(NC(=O)c2ccc(F)c(S(=O)(=O)N3CCCCCC3)c2)cc1`: the inhibition was 7.44%.

For the compound `COc1ccc(S(=O)(=O)NCCc2csc3nc(-c4ccc(OC)c(OC)c4)nn23)cc1C`, the inhibition was -5%.

With `O=C(NC1CC1)C1CCN(S(=O)(=O)c2ccc(Cl)cc2)CC1`, the inhibition is active: 32%.

Take `O=C1CCSc2ccc(S(=O)(=O)Nc3ccc(Cl)c(C(F)(F)F)c3)cc2N1`: the inhibition was -3.42%.

`O=C(Nc1cccc(Cl)c1)NC1CCN(C2CCCCC2)C1` (stereo not drawn): the inhibition was active: 84.9%.

With `CC1CCCN(S(=O)(=O)c2ccc3[nH]c(=O)cc(C(=O)NCCc4ccc(Cl)cc4)c3c2)C1` (stereo not drawn), the inhibition was found to be 11.6%.

With `COc1ccc(C)cc1NC(=O)CSc1nc2ccccc2nc1N1CCOCC1`, the inhibition is -14.3%.

In the case of `O=C(COc1ccc(Cl)cc1)Nc1nnc2n1CCS2`, the inhibition is -3.59%.

On to `Cc1c(CNC2CCCCCC2)c(C(=O)O)c(C)n1Cc1ccc(F)cc1Cl`, for which the inhibition is -1.15%.

In the case of `CCOCCCN(C(=O)Nc1ccc(Cl)cc1)C1CCN(C(C)=O)CC1`, the inhibition worked out at 3.43%.

On to `COc1cc(OC)cc(-c2nc(-c3cccc(C)c3)no2)c1`, for which the inhibition was 10.5%.

`COc1ccc(NC(=O)CN(C)C(=O)c2oc3ccccc3c2C)cc1`: the inhibition was active: 31%.

As for `COc1ccc(N2CCN(C(CNC(=O)C(=O)NCCc3ccccc3)c3cccnc3)CC2)cc1` (stereo not drawn), the inhibition turned out to be 13.3%.

Turning to `COc1cccc(-c2nc(NC(C)C)c3ccccc3n2)c1O`, the inhibition is active: 32.5%.

Take `COc1ccccc1NC(=O)CN(C)S(=O)(=O)c1ccc2c(c1)c(=O)n(C)c(=O)n2C`: the inhibition was -14.9%.

On to `COc1ccc(C)cc1NC(=O)NCc1cccn1Cc1ccccc1`, for which the inhibition was -26.8%.

Take `Cc1ccc(CCNC(=O)NCc2noc3ccccc23)cc1`: the inhibition was 5.08%.

Regarding `O=C(NCc1ccccc1)c1ccc2nc(CCc3ccccc3)oc2c1`, the inhibition is -6.66%.

Regarding `Cc1ccccc1CN1c2ccccc2S(=O)(=O)c2ccccc21`, the inhibition stood at 7.43%.

Turning to `CN(CCOC(=O)c1cccc(Br)c1)C(C)(C)C`, the inhibition was active: 31.1%.

As to `O=C(Oc1ccccc1F)c1ccc2c(=O)n3c(nc2c1)CCC3`, the inhibition was active: 31.8%.

Consider `CC(=O)N1CCc2cc(S(=O)(=O)NC(Cc3ccccc3)C(=O)Nc3cccc(C)c3)ccc21` (stereo not drawn), for which the inhibition was -22.9%.

For `O=C(Cn1ncc2c([nH]c3ccccc32)c1=O)Nc1cccc(C(F)(F)F)c1`, the inhibition was -9.08%.

`Oc1c(C(c2ccc(F)cc2)N2CCOCC2)sc2nc(-c3ccco3)nn12` (stereo not drawn): the inhibition came out at 6.52%.

For `Cc1ccc(CNCc2ccccc2)s1`, the inhibition is -10.2%.

For the compound `COc1ccc(CCNc2nccn(-c3ccc(C)c(C)c3)c2=O)cc1OC`, the inhibition is 6.69%.

For `Cc1cc(C)cc(N2CC(c3nc(-c4cccc(Cl)c4)no3)CC2=O)c1` (stereo not drawn), the inhibition came out at 7.12%.

As to `CC(C)CCNC(=O)c1c2c(nc3ccccc13)C(=O)N(C1CCCCC1)C2`, the inhibition was -1.41%.

For the compound `CC(=O)N1CCOc2cc(S(=O)(=O)Nc3c(C)cccc3C(C)C)c(Cl)cc21`, the inhibition was 11.8%.

With `O=C(Nc1ccccc1F)C1CCN(S(=O)(=O)c2ccc3c(c2)CCCN3C(=O)C2CCC2)CC1`, the inhibition is 26.1%.

For `CCCCN(C)C(=O)c1ccc2c(c1)N(Cc1ccc(F)cc1)C(=O)c1ccccc1S2(=O)=O`, the inhibition is -3.24%.

`Cc1ccc(-c2nc(CS(=O)CC(=O)N3CCN(c4ccc(F)cc4)CC3)c(C)o2)cc1` (stereo not drawn): the inhibition was determined as 2.8%.

For `CC(C)Oc1ccc(CNC(=O)C2CCCCN2S(=O)(=O)c2ccc(F)cc2)cc1` (stereo not drawn), the inhibition was -4.33%.

For `CCC(C)NC(=O)Cc1ccc(NC(=O)N2CCCCc3ccccc32)cc1` (stereo not drawn), the inhibition was 2.53%.

As for `Cc1cc(C)cc(OCc2cc(=O)n3c4c(sc3n2)CCCC4)c1`, the inhibition was found to be 13.4%.

Turning to `Cc1ccc(-n2c(=O)c3oc4ccccc4c3n(CC(=O)Nc3ccc(F)c(Cl)c3)c2=O)cc1C`, the inhibition was -12.2%.

`N#Cc1ccccc1NC(=O)C(=O)NCC(c1ccc2c(c1)OCO2)N1CCOCC1` (stereo not drawn): the inhibition is -8.33%.

On to `O=C(CS(=O)(=O)c1cccc2nsnc12)Nc1ccc(F)cc1F`, for which the inhibition was -4.99%.

In the case of `CCc1cccc(C)c1NC(=O)C1CCN(S(=O)(=O)c2cccc3nonc23)CC1`, the inhibition was 14.8%.

`COc1ccc(C(=O)Nc2c(C(=O)c3ccc(F)cc3)oc3ccccc23)cc1`: the inhibition was -0.795%.

As to `O=C1CC(c2ccc(Cl)cc2)c2cc3c(cc2N1)OCCO3` (stereo not drawn), the inhibition was found to be 6.19%.

Regarding `CCCCCn1c(=O)[nH]c2cc(C(=O)N3CCN(c4cccc(OC)c4)CC3)ccc2c1=O`, the inhibition is 2.94%.

Take `COc1ccc(-c2nc3c(c(SCC(=O)Nc4ccccc4OC)n2)Cc2cccc(C)c2O3)cc1`: the inhibition is 1.62%.

As to `CCCCC(=O)Nc1c(C(=O)N2CCN(c3ccccc3)CC2)oc2ccccc12`, the inhibition was -5.67%.

Consider `CCOc1ccc(CNC(=O)c2cccn2-c2nnc(N3CCCCC3)s2)cc1OC`, for which the inhibition is 1.76%.

As for `CCOCCCNC(=O)c1cc(=O)[nH]c2ccc(S(=O)(=O)N3CCCC3)cc12`, the inhibition came out at 0.499%.

For the compound `CCc1ccccc1NC(=O)C(CC)Oc1ccccc1-c1nnc(-c2ccccc2)o1` (stereo not drawn), the inhibition is 12.9%.

In the case of `O=C(Nc1ccc(C(=O)OCc2cc(=O)n3nc(C4CC4)sc3n2)cc1)c1cccc(Cl)c1`, the inhibition was 4.33%.

Take `CCOC(=O)CCCN1C(=O)CCn2nc(-c3cn(C)c4ccccc34)cc21`: the inhibition is -0.509%.

As to `CCOc1ccc(CCNC(=O)c2cccc(-n3c(C)nc4cccnc43)c2C)cc1`, the inhibition was -3.57%.

On to `CCCCN(Cc1ccccc1)S(=O)(=O)c1cc(Br)cc2c1N(C(C)=O)CC2`, for which the inhibition is -21.4%.

Take `CCOc1ccc(-n2ccnc2SCC(=O)Nc2ccc3c(c2)OCO3)cc1`: the inhibition was -0.268%.

For the compound `O=C(CSc1nc2ccccc2nc1Cc1ccccc1)Nc1ccccc1C(F)(F)F`, the inhibition is -18.4%.

As to `COc1ccc(S(=O)(=O)NCCc2sc3nc(-c4ccc(C)cc4)nn3c2C)cc1F`, the inhibition was -23.7%.

As for `COc1cccc(NC(=O)c2c(N3CCCC3=O)c3cc(C)ccc3n2C)c1`, the inhibition is -7.9%.

In the case of `O=C(NCCS(=O)(=O)N1CCN(c2ccccc2F)CC1)C1CC(=O)N(c2ccccc2)C1` (stereo not drawn), the inhibition was determined as 4.11%.

As to `CCOc1ccc(CNC(=O)c2cnc3sc(N(CC)CC)nn3c2=O)cc1`, the inhibition is -2.76%.

For `Cc1ccc(NC(=O)C2CCCN2S(=O)(=O)c2ccc3c(c2)C(C)(C)C(=O)N3C)cc1` (stereo not drawn), the inhibition was 7.15%.
